Experimental data: paper PMC4336329 (PLoS ONE, 2015)
In all, about 310,000 compounds went through this assay and about 14,000 (4.5%) showed an effect of 50% or more. Effects have a minus sign here. Some of the results follow.

Molecular target: human ether-à-go-go-related gene (hERG) potassium channel (human, UniProt Q12809)
Assay: primary screen, population patch clamp on CHO cells stably expressing hERG
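Also: peak tail current of the secondary pulse compared with the same well before compound.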

Chain of human ether-à-go-go-related gene (hERG) potassium channel (Q12809 whole entry, looked up): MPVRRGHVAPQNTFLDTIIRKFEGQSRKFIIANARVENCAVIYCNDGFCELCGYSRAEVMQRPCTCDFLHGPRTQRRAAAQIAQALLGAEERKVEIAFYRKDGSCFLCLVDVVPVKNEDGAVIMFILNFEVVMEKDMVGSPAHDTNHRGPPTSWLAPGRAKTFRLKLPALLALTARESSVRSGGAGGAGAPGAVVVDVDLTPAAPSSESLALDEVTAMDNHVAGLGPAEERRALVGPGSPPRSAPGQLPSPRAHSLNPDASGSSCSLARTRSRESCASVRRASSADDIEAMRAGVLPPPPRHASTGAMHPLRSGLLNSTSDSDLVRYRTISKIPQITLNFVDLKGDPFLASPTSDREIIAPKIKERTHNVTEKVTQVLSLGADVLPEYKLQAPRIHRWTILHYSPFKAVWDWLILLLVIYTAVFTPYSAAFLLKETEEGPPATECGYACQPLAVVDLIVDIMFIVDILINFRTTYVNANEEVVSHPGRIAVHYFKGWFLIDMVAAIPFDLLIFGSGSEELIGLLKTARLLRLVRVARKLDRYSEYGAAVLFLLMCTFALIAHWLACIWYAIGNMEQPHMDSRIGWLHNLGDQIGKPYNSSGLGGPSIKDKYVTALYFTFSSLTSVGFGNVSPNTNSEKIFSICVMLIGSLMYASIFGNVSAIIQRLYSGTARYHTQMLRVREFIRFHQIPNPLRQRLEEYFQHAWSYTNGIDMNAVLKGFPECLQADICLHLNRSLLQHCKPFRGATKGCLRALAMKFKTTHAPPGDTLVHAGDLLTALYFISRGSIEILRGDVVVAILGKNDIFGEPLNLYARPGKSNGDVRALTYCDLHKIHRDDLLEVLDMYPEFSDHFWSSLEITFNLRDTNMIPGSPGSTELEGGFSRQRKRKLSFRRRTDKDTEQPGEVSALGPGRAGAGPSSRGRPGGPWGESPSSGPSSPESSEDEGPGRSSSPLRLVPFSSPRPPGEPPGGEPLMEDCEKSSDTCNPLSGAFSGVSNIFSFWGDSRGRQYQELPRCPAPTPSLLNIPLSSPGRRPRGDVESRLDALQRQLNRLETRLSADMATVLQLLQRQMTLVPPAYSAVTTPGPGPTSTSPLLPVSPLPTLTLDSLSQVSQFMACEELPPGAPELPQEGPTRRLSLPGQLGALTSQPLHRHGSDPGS

Compound | hERG current change (%, negative = inhibition) at 10uM [%]
CSc1nc(=S)n(Cc2ccccc2)c(C)c1C(C)=O | -6.28
CCCCCn1c(=O)c(C(=O)Nc2ccccc2C)c(O)c2ccccc21 | 24.5
O=[N+]([O-])c1cn(Cc2ccccc2)cn1 | 4.23
COc1ccc(C(=O)OCCc2sc[n+](CC(=O)c3ccccc3)c2C)cc1.[Br-] | -48.9
COc1ccc(CN(C)CC(=O)Nc2ccc(N3CCOCC3)cc2)cc1OC | -7.84
COc1ccc(NC(=O)c2cc(S(=O)(=O)N3CCS(=O)(=O)CC3)ccc2Cl)cc1 | 10.4
COc1ccccc1NS(=O)(=O)c1ccc2c(c1)n(C)c(=O)n2C | -17.9
O=C(O)CCCC(=O)Nc1ccc(Oc2ncnc3cc(Cl)ccc23)nc1 | 5.39
COc1ccc(S(=O)(=O)N2CCCCCC2)cc1C(=O)NCCc1ccccc1 | -65.5
COc1cccc(CNC(=O)C2=C(C)C(=O)OC23CCC(C)CC3)c1 (stereo not shown) | -5.65
CC1CCN(C(=O)CSc2nc(C(C)C)nc3c2c(=O)n(C)c(=O)n3C)CC1 | -4.41
CC1=Nc2ccccc2N=C(NC(=O)CSc2nnnn2-c2ccccc2)C1c1ccccc1 (stereo not shown) | -15.3
CC(C)c1ccc(NC(=O)C2CC(=O)Nc3nc4ccccc4n32)cc1 (stereo not shown) | 19.8
O=C(NC1CCCC1)c1cc(COc2ccc3ncccc3c2)on1 | -14
COC(=O)C1C/C(=N/NS(=O)(=O)c2ccc(C)cc2)CS1 (stereo not shown) | -0.137
COc1ccc(C(=O)O)cc1S(=O)(=O)N1CCCc2ccccc21 | 22.4
O=c1c(-c2ccc(F)cc2)coc2cc(O)ccc12 | 0.83
Fc1ccc(NC(=S)Nc2cc(Cl)ccc2Cl)cc1 | 18.8
Cn1cccc1/C=C1\SC(=S)N(NC(=O)c2ccc(Cl)cc2)C1=O | 14.5
CC1=C(C(=O)O)N2C(=O)C(NC(=O)CCCC(=O)O)C2SC1 (stereo not shown) | 17.7
Cc1cc(/C=C(\C#N)C(=O)Nc2ccc(F)cc2)c(C)n1-c1ccc(N2CCOCC2)c([N+](=O)[O-])c1 | -1.84
O=C(O)C1CC=CCC1C(=O)Nc1ccccc1Cl (stereo not shown) | 6.59

Compound | hERG current change (%, negative = inhibition) at 10uM [%]
NC(=O)c1cc(Cl)ccc1OCC(=O)Nc1ccc2c(c1)OCO2 | -7.17
O=C(CN1C(=O)CSC1=O)Nc1ccc(F)c(F)c1F | 8.08
COc1ccc(/C=N/NC(=O)c2cc[n+]([O-])cc2)cc1 | 17.7
O=C(CSc1nc2[nH]ncc2c(=O)[nH]1)c1ccc(Cl)cc1 | 5.9
CN(C)c1ccc(C=C(c2nnnn2-c2ccccc2)c2nnnn2-c2ccccc2)cc1 | 0.928
COC(=O)c1ccc(CN2CCCC(C(=O)Nc3cccc(-n4cccn4)c3)C2)cc1 (stereo not shown) | -27.4
CN(C)c1ccc(/C=N/NC(=O)CSc2ccccn2)cc1 | 7.4
CCOC(=O)C1CCCN(S(=O)(=O)c2cc(C(=O)OC)n(C)c2)C1 (stereo not shown) | 22.9
CCOc1ccc(CC(=O)Nc2c(C(N)=O)oc3ccccc23)cc1OCC | 13
O=C(O)c1cc(-c2ccccc2)n[nH]1 | 15.2
Cl.NCC(c1ccccc1)(c1ccccc1)c1ccccc1 | -15.5
Cc1ccc(/C=N/N2CCOCC2)s1 | 14.4
CCCCNC(=O)c1nnn(-c2ccccc2)c1N | -0.158
Cc1ccc(C)c(N(CC(=O)N2CCCCCC2)S(C)(=O)=O)c1 | 13.5
CC(=O)N(C)c1ccc(NC(=S)Nc2ccc(C(C)C)cc2)cc1.Cl | 13.1
Cc1cc(C)cc(N(CC(=O)N2CCc3ccccc32)S(=O)(=O)c2c(C)noc2C)c1 | -10.7
CC(=O)Nc1cccc(NC(=S)Nc2ccc(F)cc2F)c1 | 5.5
O=C(CSc1nc2ccccc2s1)N1CCN(C(=O)c2ccco2)CC1 | -41.3
O=C(CN1CCN(S(=O)(=O)c2ccc(F)cc2)CC1)Nc1ccccc1F | -56.1
c1ccc(-c2cc(-c3ccccc3)on2)cc1 | -12.9
COc1cc2c(cc1O)CC[n+]1cc3c(OC)c(OC)ccc3cc1-2 | -5.85
Cc1ccc(NC(C)C(=O)N/N=C/c2c[nH]c3ccccc23)cc1 (stereo not shown) | 2.52

Compound | hERG current change (%, negative = inhibition) at 10uM [%]
CCOc1ccccc1N1CCN(CC(=O)Nc2cc(C)on2)CC1 | 11.1
O=C(Cc1ccc(-n2cccc2)cc1)N1CCN(c2ccccc2F)CC1 | -15.3
Cc1ccn(CCC(=O)NC2CC(C)(C)Cc3c2cnn3-c2ccccc2C)n1 (stereo not shown) | -25.6
COc1ccc(NC(C)C(=O)Nc2ccc(C(C)(C)C)cc2)cc1Cl (stereo not shown) | -5.69
O=C1CCCC(=O)C1=C1SCCCS1 | -5.96
N#C/C(=C\Nc1ccc(Cl)cc1)S(=O)(=O)c1ccccn1 | -18.5
Nc1c(-c2ccccc2)n[nH]c1-c1ccccc1 | -3.82
COc1cccc(CNC(=O)Cn2nc(C)c([N+](=O)[O-])c2C)c1 | 2.44
CCOn1c(=O)c(-c2cccc([N+](=O)[O-])c2)[n+]([O-])c2ccccc21 | 0.859
O=C(CSc1nccc(-c2cccs2)n1)Nc1ccccc1 | 12.2
COc1cc2sc3ccc(-c4ccc(N(C)C)nc4)cc3c(=O)c2cc1OC | 10.4
CCNc1nc(NC(N)=S)nc(NC(C)(C)C)n1 | 9.07
CCOC(=O)C1CCN(c2c(N3CCN(Cc4ccccc4)CC3)c(=O)c2=O)CC1 | -73.4
CCCCn1nnc(NC(=S)NC(=O)c2cccs2)n1 | 9.16
CCCc1nnc(NC(=O)CC(=O)OCC)s1 | -8.41
Cc1ccc(Nc2nnc(C)c(=O)[nH]2)cc1 | 0.721
CCOC(=O)/C(C#N)=C/c1c(Oc2cccc(C)c2)nc2ccccn2c1=O | -46.8
CCCCn1c(O)c(/C(CC)=N/N2CCCCC2c2cccnc2)c(=O)[nH]c1=S (stereo not shown) | -27
Cc1ccc(S(=O)(=O)/C(C#N)=C/c2c(N3CCC(C(N)=O)CC3)nc3c(C)cccn3c2=O)cc1 | -71.4
Nc1ccn(Cc2ccccc2F)n1 | 14.7
Cc1cc(C)n2nc(SC(C)C(=O)Nc3ccc(Cl)cn3)nc2n1 (stereo not shown) | -4.34
Cc1coc2cc3oc(=O)c(CCC(=O)N[C@@H](CCCNC(N)=O)C(=O)O)c(C)c3cc12 | 15.1

Compound | hERG current change (%, negative = inhibition) at 10uM [%]
O=C(Nc1nc2nccc(-c3ccccc3)n2n1)C(Cl)(Cl)Cl | -2.26
C/C(=N\NC(=O)c1ccccc1)c1cccc(Br)c1 | -0.446
CCCCN(C)Cc1c(C)[nH]c2ccc(OCC)cc2c1=O | -39.9
O=C(Nc1ccccn1)c1ccc(S(=O)(=O)N2CCCC2)cc1 | -5.31
CCc1cc(=O)oc2cc(OC(C)C(=O)NCC3CCC(C(=O)O)CC3)c(Cl)cc12 (stereo not shown) | 16.1
COC(=O)C1=C[C@@H](C(=O)OC)[C@@H]2C3=C(C(=O)[C@]2(C)NC(=O)c2ccccc2)[C@H](C)n2c(=O)n(-c4ccccc4)c(=O)n2[C@@H]3C1 | 7.6
COc1ccc(N(CC(=O)N/N=C/c2cccs2)S(=O)(=O)c2ccc(OC)c(OC)c2)cc1 | -44.3
COc1ccc(NC(=O)CSCC(=O)Nc2cc(Cl)ccc2N2CCOCC2)cc1 | -14
CC(C)N(C(=O)CO/N=C/c1cccc([N+](=O)[O-])c1)C(C)C | -23.2
CC(C)(c1ccccc1)c1ccc(OCCCNCCO)cc1.O=C(O)C(=O)O | -35.2
O=C(N/N=C/c1ccc([N+](=O)[O-])cc1)c1ccc(COc2ccccc2-c2ccccc2)cc1 | 11.5
O=C1CN(Cc2ccccc2)C(=NCc2ccco2)S1 | -29.8
CCOC(=O)Cc1cc(=O)n2[nH]c(-c3ccc(C)cc3)cc2n1 | 1.37
COc1cccc(Nc2nc3cc(OC)ccc3cc2C#N)c1 | 26.1
COCCOC(=O)c1c(C)nc(SCC(=O)Nc2ccc(OC)cc2)c(C#N)c1-c1ccco1 | 1.07
CCOC(=O)C1CCN(C(=O)c2cccc(S(=O)(=O)NCc3ccccc3)c2)CC1 | -25.7
O=C(Nc1ccccc1-c1nnc(SCc2ccc(Cl)cc2)o1)c1ccccc1 | 14.1
COc1ccccc1NC(=O)c1c(O)c2ccccc2[nH]c1=O | 7.31
Cc1nn(Cc2ccc(C(=O)Nc3ccc(C(=O)OC(C)C)cc3)o2)c(C)c1Cl | 6.74
O=C(Cn1c(=O)cnc2ccccc21)NC1CCC(O)CC1 (stereo not shown) | 6.42
O=C(NC(=S)NNC(=O)c1cc2ccccc2cc1O)c1ccco1 | 11.5
COC(=O)CC1Oc2ccc(C)cc2NC1=O (stereo not shown) | 1.24
